# Test results taken from the RNAGym collection of RNA variant scans (doi:10.1073/pnas.2313332121).
# Variants at the background level are over-represented here.
# B1: TPR 5TU (parent)
# chain: GGAUCUUCUCGAUCUAACAAAAAAGACAAAUCUGCCACAAAGCUUGAGAGCAUCUUCGGAUGCAGAGGCGGCAGCCUUCGGUGGCGCGAUAGCGCCAACGUUCUCAACUAUGACACGCAAAACGCGUGCUCCGUUGAAUGGAGUUUAUCAUG
# Variants of: B1
# Experiment: polymerase ribozyme fitness, log enrichment relative to wild type (log ratio); higher = more active; in vitro selection for triplet polymerase activity
# In short: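 Fitness is a logarithmic measure of how a genotype enriched relative to the wild type, with replicate averages weighted by inverse variance. The logarithm uses base 2, and enrichment came from Illumina sequencing of input and output libraries. Those libraries were PCR-built, transcribed mutants of each subunit of a heterodimeric triplet polymerase ribozyme, passed through one triplicate in vitro selection round that included frozen incubation at −7 °C, gel excision of extended constructs and streptavidin-bead capture. Genotypes were kept only if they had ≥10 input reads and ≥1 read per output.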
row,Variant,polymerase ribozyme fitness (log ratio)
1,G80A G86C G124A G140C,≤ -4.2
2,G80A G92A G94C C105G C108U G143U,≤ -4.2
3,G80A G92C,-0.857
4,G80A G92U,-3.2
5,G80C,-3.5
6,G80C A138G,≤ -4.2
7,G80C C85U C108U U109G A150U,≤ -4.2
8,G80C C93U A106G U146A,≤ -4.2
9,G80C C116U C125G A142U,≤ -4.2
10,G80C U90G A106C A115G C132A,≤ -4.2
11,G80U,-0.409
12,G80U C114U U144C,-3.95
13,G80U C116G A119C A150C,≤ -4.2
14,G81A A91U C105A,≤ -4.2
15,G81A A97G C125U,-0.572
16,G81A A120C G133U,≤ -4.2
17,G81A A120U G128A,-3.29
18,G81A C85G,-1.86
19,G81A C85G G141U A150G,≤ -4.2
20,G81A C87G A106C G141A,≤ -4.2
21,G81A C87U,-1.73

row,Variant,polymerase ribozyme fitness (log ratio)
1,G81A C87U A97C U101A U104G C116U,-4.01
2,G81A C87U C99A A137C U144C,≤ -4.2
3,G81A G86A C99G,-1.98
4,G81A G86C A89U C125U C131U A137G,-4.06
5,G81A G86C A119U A142C,≤ -4.2
6,G81A G88C A91U U111C A119C G124U U134G U135A,≤ -4.2
7,G81A G88C C96U U102G C114U U146G,≤ -4.2
8,G81A G92A C108G,≤ -4.2
9,G81C A91G C108G,≤ -4.2
10,G81C A119U G128U,-2.99
11,G81C A120G,-0.127
12,G81C C87A C99G,≤ -4.2
13,G81C C93A C96G C118U U127C U145C,≤ -4.2
14,G81C C116A G124U A142C,≤ -4.2
15,G81C G83U G133A,-3.88
16,G81C G84U,-2.44
17,G81C G92A,-3.5
18,G81C G94A,-0.416
19,G81C G117C A138G,-4.02
20,G81C U135C,-2.22
21,G81U A91C,≤ -4.2

row,Variant,polymerase ribozyme fitness (log ratio)
1,G81U A91C A97C U148A,≤ -4.2
2,G81U C85G A89C C93G,≤ -4.2
3,G81U C87A A107G U144G,≤ -4.2
4,G81U G86U A98C C99A A107C U144A,≤ -4.2
5,G81U G94U U104G U130A G136U,≤ -4.2
6,G81U U82C C95U A120U,-0.64
7,U82A C85A C93U,≤ -4.2
8,U82A C87G C95U G136C,≤ -4.2
9,U82A C93U U145G,-2.53
10,U82A C95U C96U A98C C116U G133U,≤ -4.2
11,U82A G86A C95A U111A G126A G140C,≤ -4.2
12,U82A G94C C96U G140A A150G,≤ -4.2
13,U82A G126A G133C,-1.01
14,U82C A89U,-0.15
15,U82C A89U C125U A137C,≤ -4.2
16,U82C A107U A115U A120U U145C,≤ -4.2
17,U82C C85U A120G C129A G136A C149A,≤ -4.2
18,U82C C95G U148C,-4.02
19,U82C C96A,-0.964
20,U82C G84U A98G U148G,≤ -4.2
21,U82C G112U G152A,-3.59

row,Variant,polymerase ribozyme fitness (log ratio)
1,U82C U104G G117U,0.147
2,U82G A91U A110U G117A,≤ -4.2
3,U82G C85U U135G,≤ -4.2
4,U82G C87G,≤ -4.2
5,U82G C93U C131G G140U U146A,≤ -4.2
6,U82G C93U C149G,≤ -4.2
7,U82G C95A C99U A150C,≤ -4.2
8,U82G C95U G100A A106G A137U A138G C149U G152U,≤ -4.2
9,U82G C96A C103U G124A U135G A138U,≤ -4.2
10,U82G G83C C116U U139C,≤ -4.2
11,U82G G84C A142U,≤ -4.2
12,U82G G84U G133U,≤ -4.2
13,U82G G86U U109C G143A U145C,≤ -4.2
14,U82G G140A G152A,≤ -4.2
15,U82G G141C U151G,≤ -4.2
16,U82G G143A,-0.245
17,G83A A89G U109G U130G C132G,≤ -4.2
18,G83A A91C,≤ -4.2
19,G83A A113U C125A A150U,≤ -4.2
20,G83A A115U,-1.25
